Test results from the supplement of paper PMC12645437, “Orthogonal IMiD-Degron Pairs Induce Selective Protein Degradation in Cells” (ACS Chemical Biology, 2025).
This is one part of the list.

biological target: no compound (DMSO); test: log2 fold change of degron read counts, EGFP-low vs EGFP+ sorted cells; higher = lower degron-EGFP level without compound (poor expression or instability); details: compound: DMSO control; 18 h
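Also: jurkat cells carrying a lentiviral library of mutant zinc finger degrons fused to EGFP plus mCherry, mCherry+ cells FACS sorted, degron abundance counted by next-generation sequencing.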

| Sequence | log2 fold change of degron read counts |
| --- | --- |
| FWCEQCGANFTQKGNLLRHIKL | -0.927 |
| LWCPICGFVCTQKGNLLRHIKL | 2.59 |
| FQCNQCGRDFTQKGNLLRHIKL | -0.815 |
| FRCNQCGRHFTQKGNLLRHIKL | -0.0436 |
| FICNICGATFTQKGNLLRHIKL | -1.13 |
| FACNQCGHWFTQKGNLLRHIKL | 1.16 |
| FACPVCGAPFTQKGNLLRHIKL | 0.515 |
| FDCPVCGAFFTQKGNLLRHIKL | -0.945 |
| FRCPVCGASFTQKGNLLRHIKL | -0.44 |
| FACEQCGAWFTQKGNLLRHIKL | -0.819 |
| LVCNQCGFECTQKGNLLRHIKL | -0.807 |
| FQCEICGAIFTQKGNLLRHIKL | -0.867 |
| FQCEICGHKFTQKGNLLRHIKL | -1.92 |
| LMCPICGFECTQKGNLLRHIKL | 0.319 |
| LFCNQCGFQCTQKGNLLRHIKL | 0.498 |
| FQCNQCGHGFTQKGNLLRHIKL | -0.363 |
| FDCNQCGAPFTQKGNLLRHIKL | 0.141 |
| FLCDQCGATFTQKGNLLRHIKL | -1.89 |
| FACDICGALFTQKGNLLRHIKL | -0.687 |
| LSCEICGFTCTQKGNLLRHIKL | -0.635 |
| FTCPICGRFFTQKGNLLRHIKL | -0.152 |
| FACPVCGALFTQKGNLLRHIKL | 0.232 |
| FHCDVCGAAFTQKGNLLRHIKL | -1.27 |
| FDCPICGAFFTQKGNLLRHIKL | 0.0349 |
| FFCEQCGASFTQKGNLLRHIKL | -0.97 |

| Sequence | log2 fold change of degron read counts |
| --- | --- |
| FCCEICGAPFTQKGNLLRHIKL | -0.863 |
| FDCEICGHRFTQKGNLLRHIKL | -0.958 |
| FCCNVCGACFTQKGNLLRHIKL | 0.081 |
| FFCPICGAPFTQKGNLLRHIKL | 0.665 |
| FVCEICGADFTQKGNLLRHIKL | -2.96 |
| LLCNQCGFGCTQKGNLLRHIKL | 0.949 |
| FHCNQCGRTFTQKGNLLRHIKL | 0.312 |
| FWCEICGRIFTQKGNLLRHIKL | 1.03 |
| FLCPQCGAAFTQKGNLLRHIKL | -0.608 |
| LNCEICGFCCTQKGNLLRHIKL | 0.198 |
| FTCDVCGAAFTQKGNLLRHIKL | -1.5 |
| FACDQCGAGFTQKGNLLRHIKL | -0.821 |
| FFCNICGAGFTQKGNLLRHIKL | 0.712 |
| FNCEQCGAQFTQKGNLLRHIKL | -1.7 |
| FCCNQCGHHFTQKGNLLRHIKL | 0.159 |
| FSCEICGAVFTQKGNLLRHIKL | -2.22 |
| LNCPICGFTCTQKGNLLRHIKL | 0.651 |
| FNCNQCGHHFTQKGNLLRHIKL | 0.711 |
| FRCPICGRNFTQKGNLLRHIKL | 0.944 |
| FGCPICGREFTQKGNLLRHIKL | -0.504 |
| FQCEQCGATFTQKGNLLRHIKL | -3.06 |
| FKCPVCGAMFTQKGNLLRHIKL | -0.234 |
| FDCPQCGATFTQKGNLLRHIKL | -1.87 |
| FDCEICGATFTQKGNLLRHIKL | -0.952 |
| FSCPICGHRFTQKGNLLRHIKL | -0.136 |
